PubChem BioAssay AID1508649 (National Center for Advancing Translational Sciences (NCATS), 2021)
Screen size: about 43,000 compounds; about 830 (1.9%) were called active. Inconclusive results, whose numbers are uncertain, are shown with a selection of clear calls. How the source made its calls: active means clear falling dose curves in both reporters; inconclusive means both reporters move, but less clearly or upward; inactive means either reporter flat; the % is the NLuc reporter signal. No potency is given beside an inconclusive call; the fits are too rough.
On the % scale 0 is the no-effect control and ±100 the full control effect; potency means the concentration at half of the fitted maximal effect; tags describe the fitted curve by direction and shape.

Experiment: Cell-based coincidence reporter assay to measure PMP22 gene transcription in S16 Pmp22-F2sN cells - Primary screen
Settings: S16 Pmp22-F2sN Schwann cells (luciferase reporters placed in the Pmp22 gene), FLuc/NLuc coincidence luminescence, 24 h; measured here: NLuc reporter readout, at 57.5 µM (top of the series); activity change, negative = inhibition: at the top concentration
How it was run: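 Rat S16 Pmp22-F2sN cells, 500-1,000/well in phenol red-free DMEM + 10% FBS, compound-treated 24 h (37C, 5% CO2). Luminescence: FLuc read, Stop&Glo added, NLuc read.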
In the case of `O=C(COc1ccc2oc3c(c2c1)CCCC3)Nc1ccc(Br)cc1`, the Potency is reported as inconclusive [phenotype inactive, partial curve]. For `Cc1ccc(NC(=O)Cc2ccc(-n3c(C)nc4cccnc43)cc2)cc1C`, the Potency was inconclusive [phenotype inactive, partial curve, poor fit]. With `Cc1ccccc1NC(=O)CSc1nc(-c2ccccc2C)nc2cc(=O)[nH]n12` the Potency was inconclusive [phenotype inactive, partial curve]. With `COc1cc(-c2ccno2)ccc1S(=O)(=O)N1CCN(c2ccc(C(C)=O)cc2)CC1` the Potency was inconclusive [phenotype inactive, single point]. For `O=C(CSc1nccn1-c1ccc(F)cc1)Nc1ccc(OC(F)(F)F)cc1`, the Potency was inconclusive [phenotype inactive, single point]. With `CC(C)c1ccc(Nc2c(-c3ccccc3O)nc3cnccn23)cc1` the Potency was inconclusive [phenotype inactive, single point]. In the case of `Cc1ccc(N2CC(NC(=O)c3ccc4c(c3)OCO4)CC2=O)cc1` (configuration not stated), the Potency is reported as inconclusive [phenotype inactive, single point]. For `O=C(C1CCN(S(=O)(=O)c2cccc3nonc23)CC1)N1CCN(c2ccccc2)CC1`, the Potency was inconclusive [phenotype inactive, partial curve, poor fit]. With `Cc1ccc(Cl)cc1N1CCN(CCNC(=O)Nc2ccc(Cl)cc2)CC1` the Potency was inconclusive [phenotype inactive, partial curve]. With `CCOC(=O)C1CCC(CN(Cc2c(Cl)cccc2Cl)S(=O)(=O)c2ccc(F)cc2)CC1` (configuration not stated) the Potency was inconclusive [phenotype inactive, single point]. For `COc1cc(C(=O)N2CCc3c([nH]c4ccccc34)C2c2ccccc2)cc(OC)c1OC` (configuration not stated), the Potency was inconclusive [phenotype inactive, single point]. For `Cc1cccc(C(=O)Nc2nc(-c3ccc(Br)cc3)ns2)c1`, the “activity change, negative = inhibition” value was inactive: 6.99%. In the case of `Cc1cc(NC(=O)Nc2csc3c2CCCC3)ccc1Br`, the Potency is reported as inconclusive [phenotype inactive, single point]. With `COCCCNC(=O)C1CCC(Cn2c(=O)c3sccc3n(Cc3ccc(F)cc3)c2=O)CC1` (configuration not stated) the Potency was inconclusive [phenotype inactive, partial curve, poor fit]. With `CCCCn1c(-c2ccc(C)cc2)c(C)n2c3c(=O)n(C)c(=O)n(C)c3nc12` the Potency was inconclusive [phenotype inactive, partial curve]. In the case of `CC1=C(C(=O)OCc2ccc(C)cc2)C(c2ccccc2Cl)CC(=O)N1` (configuration not stated), the “activity change, negative = inhibition” value is reported as inactive: 14%. For `Cc1ccc(NC(=O)CSc2[nH]c(=O)ncc2C)cc1`, the “activity change, negative = inhibition” value was inactive: 4.05%. In the case of `CC(=O)c1ccc(N2CCN(C3C(=O)c4ccccc4N3C(C)=O)CC2)cc1` (configuration not stated), the “activity change, negative = inhibition” value is reported as inactive: 6.64%. In the case of `Cc1cc(C)c(C(=O)Nc2ccccc2)c(SCC(=O)Nc2ccc(Br)cc2C)n1`, the Potency is reported as inconclusive [phenotype inactive, single point]. For `COc1cc(-c2nc3ccc(C)cn3c2Nc2ccc(Cl)cc2)ccc1O`, the Potency was inconclusive [phenotype inactive, single point]. In the case of `COc1cccc(-c2nnc3n(Cc4ccccc4Cl)c(=O)c4ccccc4n23)c1O`, the Potency is reported as inconclusive [phenotype inactive, partial curve, poor fit]. In the case of `O=C(Cn1c(=O)n(Cc2ccc3c(c2)OCO3)c(=O)c2ccc(C(=O)NC3CCCCC3)cc21)Nc1ccccc1F`, the Potency is reported as inconclusive [phenotype inactive, single point]. With `Cc1ccc(Cl)cc1NC(=O)CN(C)S(=O)(=O)c1ccc2c(c1)n(C)c(=O)c(=O)n2C` the Potency was inconclusive [phenotype inactive, partial curve, poor fit]. With `Cc1ccc2oc(C(=O)N(Cc3ccccc3F)C3CCS(=O)(=O)C3)c(C)c2c1` (configuration not stated) the Potency was inconclusive [phenotype inactive, single point]. In the case of `Cc1ccc(-c2nnc(SCC(=O)N3CCc4ccccc43)o2)cc1`, the Potency is reported as inconclusive [phenotype inactive, single point]. For `CCN(C(=O)C1CCN(S(=O)(=O)c2ccc3c(c2)CCCN3C(=O)C2CCC2)CC1)c1cccc(C)c1`, the Potency was inconclusive [phenotype inactive, partial curve]. In the case of `COc1cc(NC(=O)c2nnn(CC(=O)Nc3ccccc3)c2N)cc(OC)c1`, the Potency is reported as inconclusive [phenotype inactive, single point]. With `Cc1ccc(NC(=O)/C=C/c2ccccc2)c(Br)c1` the “activity change, negative = inhibition” value was inactive: -17.5%. With `O=C(Cn1c(=O)n(Cc2ccc3c(c2)OCO3)c(=O)c2oc3ccccc3c21)Nc1ccccc1` the Potency was inconclusive [phenotype inactive, single point]. In the case of `COc1ccc(OC)c(NC(=O)CSc2c3c(nc4ccccc24)CCCC3)c1`, the Potency is reported as active: 9.46 µM. For `CCOC(=O)c1cccc(NC(=O)c2cc(CN3CCCC3)on2)c1`, the “activity change, negative = inhibition” value was inactive: 4.87%. For `Cc1ccc(S(=O)(=O)NCCc2nnc3ccc(SCc4ccccc4C)nn23)cc1`, the “activity change, negative = inhibition” value was inactive: -28%. In the case of `COc1ccc(Cl)cc1NC(=O)Cn1ccn(Cc2ccc(C)cc2)c(=O)c1=O`, the Potency is reported as inconclusive [phenotype inactive, single point]. In the case of `Cc1cc(C)c2c(CC(=O)N(Cc3ccc(N(C)C)cc3)Cc3ccco3)coc2c1`, the Potency is reported as inconclusive [phenotype inactive, partial curve]. In the case of `CCN(CC)CCN(C(=O)c1ccco1)c1nc2ccc(Cl)cc2s1`, the Potency is reported as inconclusive [phenotype inactive, single point]. In the case of `Cc1ccc(C)c(NC(=O)CN2CCSc3ccc(S(=O)(=O)N4CCCC4)cc32)c1`, the Potency is reported as inconclusive [phenotype inactive, single point]. In the case of `Cc1ccccc1S(=O)(=O)Cc1ccc(C(=O)N2CCN(c3cccc(Cl)c3)CC2)o1`, the Potency is reported as active: 11.9 µM.
